Results as given in the RNAGym collection of RNA variant scans (doi:10.1093/nar/gkz1192).
The source gives no read counts; variants with many changes may rest on few reads.

B1: CPEB3 Ribozyme (parent)
chain: UAACAGGGGGCCACAGCAGAAGCGUUCACGUCGCAGCCCCUGUCAGAUUCUGGUGAAUCUGCGAAUUCUGCUGUAUAUCUC

Variants of: B1
Assay: self-cleavage, relative activity (ratio to wild type); higher = more cleavage; in vitro, sequencing
Summary of the method: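 Relative activity compares each variant's cleaved/total read fraction with that of the unmutated ribozyme. To get these fractions, barcoded CPEB3 ribozyme libraries from rounds of error-prone PCR were transcribed with T7 RNA polymerase for 5 hours at 37°C and then given 15 min of DNase I treatment before EDTA was added. The RNAs were reverse transcribed with template switching and sequenced on Illumina, and DNA sequencing linked barcodes to variants. A minimum of 5 reads applied, and three batches were averaged.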

Variant	self-cleavage
AAACCGGGGGCCGCGGCAGAAGCGUUCACGUCGCAGCCCCUGUCAGAUUCUGGUGAAUCAGCGAAUCCUGCUGUGUAUCUC [U1A A5C A13G A15G U60A U67C A75G]	0
AAACCGGGGGCCUCUGCAGAAGCGUCCACGUCGCAGCCCCUGUCAGAUUCUGGUGAAUCUGCGAGUUCUGCUGUAUAUCUC [U1A A5C A13U A15U U26C A65G]	0.08
AAACGGGGGGCCUUAGCAGAAGCGCUCACGUCGCAGCCCCUGUCAGAUUCUGGUGAAUCUGCGAGCUCUGCUGUAUAUCUC [U1A A5G A13U C14U U25C A65G U66C]	0.08
AAACGGGGGGCCACGGCAGAAGCGUUCACGUCGCAGCCCCCGUCAGAUUCUGGUGAAUCGGCGAAUUCUGCUGUAUAUCUC [U1A A5G A15G U41C U60G]	0.82
AAACGGGGGGCCACAGCGGAAGCGUUCACGUCGCAGCCCCUGUCAGAUUCUGGCGAAUCUGCGAAUUCUGCUGUAUAACUC [U1A A5G A18G U54C U78A]	0.4
AAACGGGGGGCCACAGCUGAAGCGUACACGUCGCAGCCCCUGUCAGGUUCUGGUGAGUCUGCGAAUUCUGCUGUAUAUCCC [U1A A5G A18U U26A A47G A57G U80C]	0.42
AAACGGGGGGACACAGCAGAAGCGUUCACGUCGCAGCCCCUGUCAGAUUCUGGUGAAUCUGCGAAUUCUGCCGUAUAUCUC [U1A A5G C11A U72C]	0.69
AAACGGGGGGCCACAGCAGAAGCGUUCACGUCGCAGCCCCUGUCAGAUUCUAGUGAAUCUGCGAAUUCUGCUAUAUAUCUC [U1A A5G G52A G73A]	1.09
AAACGGGGGGCCACAGCAGAAGCGUUCACGACGCAGCCCCUGUCAGAUUCUGGUGAAUCUGCGAACACUGCUGUAUAUCUC [U1A A5G U31A U66C U67A]	0.18
AAACGGGGGGCCACAGCAGAAGCGUUCACGCCACAGCCCCUGUCAGAUUCUGGUGAAUCUGCGAAUUCUGAUGUAUAUCUC [U1A A5G U31C G33A C71A]	0.12
AAACGGGGGGCCACAGCAGAAGCGUUCACGUCGCAGCCCCUGUCAGAUUCCGGUGAAUCUGCGAAUUCUGCUGUAUAUCUC [U1A A5G U51C]	0.59
AAACGGGGGGCCACAGCAGAAGCGUUCACGUCGCAGCCCCUGUCAGAUUCUGGUGAAUCUGCGAAUUCAGCUGUAUAUCUC [U1A A5G U69A]	0.37
AAACUGGGGGCCGCAGCAGAAGCACUCACGUCGCAGCCCCCGUCAGAUUCUGGUGAAUCUGCGAAUUCUGCUGUAUAUCUC [U1A A5U A13G G24A U25C U41C]	0.47
AAACUGGGGGCCACGGCAGGAGCGCUCACGUCGCGGCCCCUGUCAGAUUCUGGUGAAUCUGCGGAUUCUGCUGUAUAUCUC [U1A A5U A15G A20G U25C A35G A64G]	0
AAACUGGGGGCCACUGCGGAAGCGUUCACGUUGCAGCCCCUGUCAGAUUCUGGAGAACCUGCGAAUUCUGCUGUAUAUCUC [U1A A5U A15U A18G C32U U54A U58C]	0.17
AAACUGGGGGCCACAGCAGAAGCGUUCACGUCGCAGCUCCUGUCCGAUUCUGGUGAAUCCGCGAAUUCUGCCGUAUAUCUC [U1A A5U C38U A45C U60C U72C]	0.58
AAACUGGGGGCCACAACAGAAGCGUUCACGUCGCAGCCCCUGUCAGAUUCUGGUGAAUCUGCGAAUACUGCUGUAUAUCUC [U1A A5U G16A U67A]	0.28

Variant	self-cleavage
AAACUGGGGGCCACAGCAGAAGCGCUCACGUCGCAGCCCCUGUCAGAUUCUGGUGAAUCUGCGAAUUCUGCUGUAUAUCUC [U1A A5U U25C]	0.27
AAACUGGGGGCCACAGCAGAAGCGUUCACGUCGCAGCCCCUGUCAGAUUCUGGUGAAUCAGCGGAUUCUGCUGAAUAUCUC [U1A A5U U60A A64G U74A]	0.87
AAACAGGGGGCCCCAGCAGAAGCGUUCACGUCGUGUCCCCUGUCAGAUUCUGGUGAAUCUGCGAAUUCUGCUGUAUAUCUC [U1A A13C C34U A35G G36U]	0.08
AAACAGGGGGCCCCAGCAGAAGCGUUCACGUCGCAGCCCCCGUCAGAUUCUGGUGAAUCUGCGAAUUCUGCUGUAUAUCUC [U1A A13C U41C]	0.84
AAACAGGGGGCCGCAGCGGAAGCGUUCACGUCGCAGCCCCUGUCGGGUUCUGGUGAAUCUGCGAAUUCUGCUGUAUAUCUC [U1A A13G A18G A45G A47G]	0.13
AAACAGGGGGCCGCAGCAGUAGCGUUCACGUCGCAGCCCCUGUCAGGUUCAGGCGAAUCUGCGAAUUCUGCUGUAUAUCUC [U1A A13G A20U A47G U51A U54C]	0.2
AAACAGGGGGCCGCAGCAGAAGCGUUCACGUCGCAGCCCCUGUCAGAUUCUGGUGAAUCUGCGAAUUCUGCUGUGUAUCUC [U1A A13G A75G]	0.93
AAACAGGGGGCCGCAGCAGAAGCGUUCACGUCGCAGCCCCAGUCAGAUUCUGGUGAAUCUGCGAAUUCUGCUGUAUAUCUC [U1A A13G U41A]	0.1
AAACAGGGGGCCGCAGCAGAAGCGUUCACGUCGCAGCCCCUGACAGAUUCAGGUGAAUCUGCGAAUUCCGCUGUUUAUCUC [U1A A13G U43A U51A U69C A75U]	0.29
AAACAGGGGGCCGCAGCAGAAGCGUUCACGUCGCAGCCCCUGUCAGAUUCUGGAGAAUCUGCGAAUUCUGCUAUAUAUCUC [U1A A13G U54A G73A]	1.14
AAACAGGGGGCCGCAGCAGAAGCGUUCACGUCGCAGCCCCUGUCAGAUUCUGGUGAAUCUGCGAAUACUGCUGUAUAUCUC [U1A A13G U67A]	0.46
AAACAGGGGGCCUCGGCAGAAGCGUUCACGUCGCAGCCCCUGUCAGAUUCUGGUGAAUCUGCGAAUUCUGCUGUAUACCUC [U1A A13U A15G U78C]	0.81
AAACAGGGGGCCUCAGCAGGAGCGUUCGCGUCGCAGCCCCUGUCAGAUUCUGGUUAAUCUGCGAAUUCUGCUGUACAUCUC [U1A A13U A20G A28G G55U U76C]	0.25
AAACAGGGGGCCUCAGCAGUAGCGUUCACGUCGCAGCCCCUGUCAGAUAGCGGAGAAUCUGCGAAUUCUGCUGUAUAUCUC [U1A A13U A20U U49A C50G U51C U54A]	0.1
AAACAGGGGGCCUCAGCAGAGGCGUUCACGUCGCAGCCCCUGUCAGAUUCUGGUGAAUCUGCGAGUUCUGCUGAAUAUCUC [U1A A13U A21G A65G U74A]	0.51
AAACAGGGGGCCUCAGCAGAGGCGUUCACGUUGCAGCCCCUGUCAGAUACUGGUGAAUCUGCGAAUUCUGCUGUAUAUCUC [U1A A13U A21G C32U U49A]	0.21
AAACAGGGGGCCUCAGCAGAAGCGUUCACGUCGCAGCCCCUGUCAGAUUCUGGUGAAUCUGCGUAUUCUGCUGUAUAUCUC [U1A A13U A64U]	0.28
